Assay results as given in patent publication US20170173112A1 (Daiichi Sankyo, published 2017).

Assays:
[1] = molecular target: T1, human PCSK9 (SEQ ID NO: 34) containing a C-terminal FLAG tag (human, UniProt Q8NBP7 31-152; Q8NBP7 153-692); test: cell-based or functional assay
[2] = molecular target: T1, human PCSK9 (SEQ ID NO: 34) containing …; test: binding ELISA, biotinylated PCSK9 on Neutravidin plate
[3] = molecular target: T2, gain of function hPCSK9_D374Y mutant (human, UniProt Q8NBP7 31-152; Q8NBP7 153-692); test: as above
T2 construct: also called human PCSK9_D374Y; not shown: FLAG tag

mouse PCSK9 [4] = molecular target: T3, mouse PCSK9 (mouse, UniProt Q80W65 35-694, limits assumed); test: as above
T3 construct: biotinylated in the assays; also called mPCSK9

[5] = molecular target: T1, human PCSK9 (SEQ ID NO: 34) containing …; test: SPR (Biacore T200), biotinylated PCSK9 captured, 1:1 model
[6] = molecular target: T1, human PCSK9 (SEQ ID NO: 34) containing …; test: competition ELISA, 25 nM hPCSK9 pre-incubated with mutein, LDL-R-coated plate
[7] = molecular target: T2, gain of function hPCSK9_D374Y mutant; test: competition ELISA, 0.25 nM hPCSK9_D374Y pre-incubated with mutein, LDL-R-coated plate
[8] = molecular target: T1, human PCSK9 (SEQ ID NO: 34) containing …; test: cell-based or functional assay; remark: listed apart in the source
[9] = molecular target: T1, human PCSK9 (SEQ ID NO: 34) containing …; test: SPR (Biacore T200), hPCSK9-Bio captured, 1:1 model
[10] = molecular target: T1, human PCSK9 (SEQ ID NO: 34) containing …; test: SPR (Biacore T200), biotinylated PCSK9 captured, 1:1 model; remark: listed apart in the source
mouse PCSK9 [11] = molecular target: T3, mouse PCSK9; test: as above
T3 sequence (Q80W65 35-694 limits assumed): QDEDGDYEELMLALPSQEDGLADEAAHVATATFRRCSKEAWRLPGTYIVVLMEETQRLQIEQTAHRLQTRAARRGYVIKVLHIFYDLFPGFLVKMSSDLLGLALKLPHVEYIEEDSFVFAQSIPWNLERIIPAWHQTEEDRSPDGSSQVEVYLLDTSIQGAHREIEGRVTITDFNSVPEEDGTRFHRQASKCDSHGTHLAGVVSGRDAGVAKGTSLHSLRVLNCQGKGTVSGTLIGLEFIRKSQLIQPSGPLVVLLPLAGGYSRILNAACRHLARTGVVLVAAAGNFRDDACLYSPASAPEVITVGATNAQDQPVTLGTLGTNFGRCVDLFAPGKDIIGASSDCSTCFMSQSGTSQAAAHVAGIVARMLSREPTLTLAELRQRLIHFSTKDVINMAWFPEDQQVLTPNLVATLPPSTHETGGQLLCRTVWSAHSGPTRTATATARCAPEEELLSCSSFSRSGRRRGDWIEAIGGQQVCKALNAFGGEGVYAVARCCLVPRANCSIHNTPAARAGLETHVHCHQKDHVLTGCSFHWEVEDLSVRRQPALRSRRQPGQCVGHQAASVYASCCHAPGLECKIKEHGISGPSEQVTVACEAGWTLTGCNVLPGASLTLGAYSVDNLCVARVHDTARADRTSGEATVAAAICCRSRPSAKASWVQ

[12] = molecular target: T1, human PCSK9 (SEQ ID NO: 34) containing …; test: SPR (Biacore T200), biotinylated human PCSK9 captured, 1:1 model
[13] = molecular target: T1, human PCSK9 (SEQ ID NO: 34) containing …; test: competition ECL assay, 10 pM hPCSK9-Bio, plate coated with benchmark antibody (SEQ ID NOs: 29 and 33) as competitor
[14] = molecular target: T1, human PCSK9 (SEQ ID NO: 34) containing …; test: cell free TR-FRET, 20 nM biotin-hPCSK9 and Eu-LDLR, without HSA
[15] = molecular target: T1, human PCSK9 (SEQ ID NO: 34) containing …; test: SPR (Biacore T200), biotinylated PCSK9 captured, 1:1 Langmuir model
[16] = molecular target: T1, human PCSK9 (SEQ ID NO: 34) containing …; test: cell free TR-FRET, 20 nM biotin-hPCSK9 and Eu-LDLR, with 34 mg/ml HSA

IC50, restoration of labeled LDL uptake in HepG2 cells with 100 nM hPCSK9 [1] [nM] | EC50 [2] [nM] | EC50 [3] [nM] | EC50 (mouse PCSK9 [4]) [nM] | Kd [5] [nM] | koff [5] [s⁻¹] | kon [5] [M⁻¹ s⁻¹] | IC50 [6] [nM] | IC50 [7] [nM] | IC50, LDL-R depletion assay on HepG2 cells with 100 nM PCSK9 [8] [nM] | IC90, LDL-R depletion assay on HepG2 cells with 100 nM PCSK9 [8] [nM] | IC50 [13] [nM] | Binder | further results
44.5 | 3.1 | 2.1 | 20.1 | 4.1 | 0.000232 | 56600 | 10.1 | 0.21 | – | – | – | lipocalin mutein SEQ ID NO: 6 (designed binder, human tear lipocalin mutein) ASDEEIQDVSGTWYLKAMTVDFTDNSPMFTSVTPMTLTTLEGGNLEAKVTMQYAGRSQEVKAVLEKTDEPGKYTAIGGTHVAYIIRSHVKDHYIFYSEGAERGRPVPGVWLVGRDPKNNLEALEDFEKAAGARGLSTESILIPRQSETSSPGSAWSHPQFEK | –
71.8 | 1.6 | 1.2 | 4.4 | 0.85 | 0.00015 | 177000 | 13.8 | 0.13 | – | – | – | lipocalin mutein SEQ ID NO: 3 (designed binder, human tear lipocalin mutein) ASDEEIQDVSGTWYLKAMTVDFSRGDAIWTSVTPMTLTTLEGGNLEAKVTMMYAGRSQEVKAVLEKTDEPGKYTAMGGSHVAYIIRSHVKDHYIFYSEGPYQGAPVPGVWLVGRDPKNNLEALEDFEKAAGARGLSTESILIPRQSETSSPGSAWSHPQFEK | –
– | – | – | – | – | – | – | – | – | 103 | 216 | 0.16 | lipocalin mutein SEQ ID NO: 13 (designed binder, human tear lipocalin mutein) ASDEEIQDVSGTWYLKAMTVDFSRGDAIWTSVTPMTLTTLEGGNLEAKVTMMYAGRSQEVKAVLERTDEPGKYTTMGGSHVAYIIRSPVKDHYIFYSEGPHQGAPVPGVWLVGRDPKNNLEALEDFEKAAGARGLSTESILIPRQSETSSPGSAWSHPQFEK | Kd [9]: 0.32 nM; koff [9]: 8.77e-05 s⁻¹; kon [9]: 275000 M⁻¹ s⁻¹; Kd [10]: 0.32 nM; koff [10]: 8.31e-05 s⁻¹; kon [10]: 262000 M⁻¹ s⁻¹; Kd (mouse PCSK9 [11]): 1.77 nM; koff (mouse PCSK9 [11]): 0.000312 s⁻¹; kon (mouse PCSK9 [11]): 176000 M⁻¹ s⁻¹; Kd [12]: 0.24 nM; koff [12]: 6.84e-05 s⁻¹; kon [12]: 281000 M⁻¹ s⁻¹
– | – | – | – | – | – | – | – | – | 70.7 | 148 | 0.37 | PEGylated lipocalin mutein variant SEQ ID NO: 32 (designed binder, branched PEG40 conjugated; residue not stated) ASDEEIQDVSGTWYLKAMTVDFSRGDAIWTSVTPMTLTTLEGGNLEAKVTMMYAGRSQEVKAVLEKTDEPGKYTVMGGSHVASIIRSHVKDHYIFYPEGPYQGAPVPGVWLVGRDPKNNLEALEDFEKAAGARGLSTESILIPRQSETSSPGSAWSHPQFEK | –
– | – | – | – | – | – | – | – | – | 91.7 | 192 | 0.11 | lipocalin mutein SEQ ID NO: 20 (designed binder, human tear lipocalin mutein) ASDEEIQDVSGTWYLKAMTVDFSRGDAIWTSVTPMTLTTLEGGNLEAKVTMMYAGRSQEVKAVLEKTDEPGKYTVMGGSHVASIIRSHVKDHYIFYPEGPYQGAPVPGVWLVGRDPKNNLEALEDFEKAAGARGLSTESILIPRQSETSSPGSAWSHPQFEK | Kd [9]: 0.31 nM; koff [9]: 9.73e-05 s⁻¹; kon [9]: 313000 M⁻¹ s⁻¹; Kd [10]: 0.31 nM; koff [10]: 7.79e-05 s⁻¹; kon [10]: 249000 M⁻¹ s⁻¹; Kd (mouse PCSK9 [11]): 1.98 nM; koff (mouse PCSK9 [11]): 0.000351 s⁻¹; kon (mouse PCSK9 [11]): 177000 M⁻¹ s⁻¹
– | – | – | – | – | – | – | – | – | 82.6 | 173 | 0.53 | PEGylated lipocalin mutein variant SEQ ID NO: 31 (designed binder, branched PEG40 conjugated; residue not stated) ASDEEIQDVSGTWYLKAMTVDFSRGDAIWTSVTPMTLTTLEGGNLEAKVTMMYAGRSQEVKAVLERTDEPGKYTTMGGSHVAYIIRSPVKDHYIFYSEGPHQGAPVPGVWLVGRDPKNNLEALEDFEKAAGARGLSTESILIPRQSETSSPGSAWSHPQFEK | –
81.2 | 4.4 | 1.4 | 10.1 | 8.96 | 0.00138 | 154000 | 10.7 | 0.32 | – | – | – | lipocalin mutein SEQ ID NO: 8 (designed binder, human tear lipocalin mutein) ASDEEIQDVSGTWYLKAMTVDFKGPTPLWTSVTPMTLTTLEGGNLEAKVTMFHAGRSQEVKAVLEKTDEPGKYTAYGGRHVAYIIRSHVKDHYIFYSEGASVGNPVPGVWLVGRDPKNNLEALEDFEKAAGARGLSTESILIPRQSETSSPGSAWSHPQFEK | –
– | – | – | – | – | – | – | – | – | 82.6 | 173 | 0.19 | PEGylated lipocalin mutein variant SEQ ID NO: 30 (designed binder, branched PEG40 conjugated; residue not stated) ASDEEIQDVSGTWYLKAMTVDRFKIASWPRSVTPMTLTTLEGGNLEAKVTMNWWGRSQEVKAVLERTDEPGKYTAQGDRHVAYIIRSHVKDHYIFYSEGNLQGETVPGVWLVGRDPKNNLEALEDFEKAAGARGLSTESILIPRQSETSSPGSAWSHPQFEK | –
– | – | – | – | – | – | – | – | – | 76.9 | 161 | 0.09 | lipocalin mutein SEQ ID NO: 22 (designed binder, human tear lipocalin mutein) ASDEEIQDVSGTWYLKAMTVDRFKIASWPRSVTPMTLTTLEGGNLEAKVTMNWWGRSQEVKAVLERTDEPGKYTAQGDRHVAYIIRSHVKDHYIFYSEGNLQGETVPGVWLVGRDPKNNLEALEDFEKAAGARGLSTESILIPRQSETSSPGSAWSHPQFEK | Kd [9]: 0.35 nM; koff [9]: 0.000263 s⁻¹; kon [9]: 753000 M⁻¹ s⁻¹; Kd [10]: 0.39 nM; koff [10]: 0.000258 s⁻¹; kon [10]: 663000 M⁻¹ s⁻¹; Kd (mouse PCSK9 [11]): 1.99 nM; koff (mouse PCSK9 [11]): 0.000638 s⁻¹; kon (mouse PCSK9 [11]): 321000 M⁻¹ s⁻¹; Kd [12]: 0.37 nM; koff [12]: 0.000219 s⁻¹; kon [12]: 591000 M⁻¹ s⁻¹
95.8 | 2.8 | 0.8 | 16.3 | 6.69 | 0.00484 | 724000 | 13.2 | 0.13 | – | – | – | lipocalin mutein SEQ ID NO: 7 (designed binder, human tear lipocalin mutein) ASDEEIQDVSGTWYLKAMTVDRFKIASWPRSVTPMTLTTLEGGNLEAKVTMNWWGRSQEVKAVLEKTDEPGKYTAQGGSHVAYIIRSHVKDHYIFYSEGNRQGDPVPGVWLVGRDPKNNLEALEDFEKAAGARGLSTESILIPRQSETSSPGSAWSHPQFEK | –
– | – | – | – | – | – | – | – | – | – | – | – | lipocalin mutein SEQ ID NO: 82 (designed binder) GASDEEIQDVSGTWYLKAMTVDRFKIASWPRSVTPMTLTTLEGGNLEAKVTMNWWGRSQEVKAVLERTDEPGKYTAQGDRHVAYIIRSHVKDHYIFYSEGNLQGETVPGVWLVGRDPKNNLEALEDFEKAAGARGLSTESILIPRQSETSSPG | IC50 [14]: 1.68 nM; Kd [15]: 0.25 nM; koff [15]: 0.00037 s⁻¹; kon [15]: 1.5e+06 M⁻¹ s⁻¹; IC50 [16]: 1.33 nM
85.8 | 2.4 | 1.6 | 21.8 | 2.89 | 0.000139 | 47900 | 6.2 | 0.37 | – | – | – | lipocalin mutein SEQ ID NO: 4 (designed binder, human tear lipocalin mutein) ASDEEIQDVSGTWYLKAMTVDWQCDTGLWTSVTPMTLTTLEGGNLEAKVTMSYAGAFQEVKAVLEKTDEPGKYTADGGKHVAYIIRSHVKDHYIFYSEGECGGWPVPGVWLVGRDPKNNLEALEDFEKAAGARGLSTESILIPRQSETSSPGSAWSHPQFEK | –
